Reference: patent US5656630A, “Method of combating fungus” (American Cyanamid Company, priority 1993, dated 1997)

Tested on: tomato plants
Conditions: in vivo
Text: Consequently, if pure Z-isomer is applied in conditions which substantially exclude sunlight, lower amounts of Z-isomer are required than of the E/Z mixture to achieve the same fungicidal effect and the effect is achieved quicker. This is clearly advantageous from both an economic and ecological point of view.

COc1ccc(/C(=C\C(=O)N2CCOCC2)c2ccc(Cl)cc2)cc1OC [Z-isomer, Z-isomer of 4-[3-(4-chlorophenyl)-3-(3,4-dimethoxyphenyl)acryloyl]morpholine]
absorption by the roots and translocation into the leaves: much better absorbed by the roots and translocated into the leaves than the E-isomer | concentration in the leaves compared with concentration in the solution applied: much higher than the concentration of Z-isomer in the solution applied to the plant
